This test concerns OVCAR8. Description: cell count relative to DMSO vehicle (fold change); OVCAR8 is a high-grade serous ovarian cancer line and CX-5461 an RNA polymerase I inhibitor; higher = more surviving senescent cells (less killing). To be noted: senescence inducer: CX-5461 3 µM 48 h, then 6 d recovery (CX senescent), exposure time 24 h.

Several values for one entry are separate records, joined by “and”; a condition that tells them apart may be missing. Equal entries are not always repeated. ± gives the standard deviation of the averaged measurements. Some of the results follow.

We go through 33 compounds from the supplement of paper PMC12462457.

For `Cc1ccc(/C=N/NC(=O)c2ccccc2Oc2ccccc2)o1`, the cell count is, setting by setting: (compound dose 1 µM) 1.17 ± 0.25; (compound dose 5 µM) 1.02 ± 0.3.
Regarding `CC(C)(O)CC[C@@H](O)[C@](C)(O)[C@H]1CC[C@@]2(O)C3=CC(=O)[C@@H]4C[C@@H](O)[C@@H](O)C[C@]4(C)[C@H]3CC[C@]12C`, the cell count is 1.08 ± 0.07 (compound dose 1 µM) and 1.03 ± 0.13 (compound dose 5 µM).
In the case of `CCC[C@H](NC(=O)/C(C#N)=C/c1cccc(Br)n1)c1ccccc1` [Degrasyn], the cell count turned out to be 1.03 ± 0.26 (compound dose 1 µM) and 0.0685 ± 0.005 (compound dose 5 µM).
As for `CC(=O)Nc1c(I)c(NC(C)=O)c(I)c(C(=O)O)c1I` [Sodium diatrizoate], the cell count by setting is: (compound dose 1 µM) 1.13 ± 0.12; (compound dose 5 µM) 1.01 ± 0.15.
Turning to `CC(=O)Nc1c(I)c(NC(C)=O)c(I)c(C(=O)O)c1I`, the cell count by setting is: (compound dose 1 µM) 1.16 ± 0.19; (compound dose 5 µM) 1.17 ± 0.17.
Consider `O=C(Nc1cccc(-c2nncn2C2CC2)c1)c1cc(-n2cnc(C3CC3)c2)ccn1`, for which the cell count was found to be 1.16 ± 0.33 (compound dose 1 µM) and 1.19 ± 0.31 (compound dose 5 µM).
For `O=c1n(CC2CO2)c(=O)n(CC2CO2)c(=O)n1CC1CO1` (stereo unspecified) [Triglycidyl isocyanurate], the cell count (compound dose 1 µM) was determined as 1.21 ± 0.2 and the cell count (compound dose 5 µM) turned out to be 1.34 ± 0.32.
On to `N#CN=C(NCCCCCCOc1ccc(Cl)cc1)Nc1ccncc1`, for which the cell count turned out to be 1.06 ± 0.14 (compound dose 1 µM) and 1.02 ± 0.11 (compound dose 5 µM).
The matching figures for `CCOC(=O)c1ccc(N2NC(=O)C(=Cc3ccc([N+](=O)[O-])o3)C2=O)cc1`: 1.07 ± 0.15 and 1.03 ± 0.25.
`CCNC(=O)c1noc(-c2cc(Cl)c(O)cc2O)c1-c1ccc(OC)cc1`: the cell count was 1.22 ± 0.28 (compound dose 1 µM) and 1.34 ± 0.15 (compound dose 5 µM).
Regarding `CC(C)=CCC[C@](C)(O[C@@H]1O[C@H](CO)[C@@H](O)[C@H](O)[C@H]1O)[C@H]1CC[C@]2(C)[C@@H]1[C@H](O)C[C@@H]1[C@@]3(C)CC[C@H](O)C(C)(C)[C@@H]3[C@@H](O[C@@H]3O[C@H](CO)[C@@H](O)[C@H](O)[C@H]3O[C@@H]3OC[C@@H](O)[C@H](O)[C@H]3O)C[C@]12C` [Notoginsenoside R1], the cell count by setting is: (compound dose 1 µM) 1.06 ± 0.14; (compound dose 5 µM) 1.1 ± 0.2.
For `C/C=C(/C)C(=O)OC(C)(C)[C@@H]1Cc2c(ccc3ccc(=O)oc23)O1` [Columbianadin], the cell count worked out at 1.08 ± 0.088 (compound dose 1 µM) and 1.04 ± 0.046 (compound dose 5 µM).
As to `COC(=O)CC[C@H](NC(=O)[C@H](CC(=O)OC)NC(=O)OCc1ccccc1)C(=O)N[C@H](C(=O)N[C@@H](CC(=O)OC)C(=O)CF)C(C)C`, the cell count runs as follows: (compound dose 1 µM) 1.03 ± 0.11; (compound dose 5 µM) 0.999 ± 0.076.
For the compound `C[C@]12C=CC(=O)C=C1CC[C@@H]1[C@@H]2C(=O)C[C@@]2(C)[C@H]1CC[C@]2(O)C(=O)CO`, the cell count reads like this: (compound dose 1 µM) 1.15 ± 0.086; (compound dose 5 µM) 1.14 ± 0.035.
In the case of `Fc1ccc(Nc2nc3ccccc3nc2Nc2ccc(F)cc2)cc1`, the cell count (compound dose 1 µM) was found to be 0.898 ± 0.11 and the cell count (compound dose 5 µM) was 1.03 ± 0.19.
For the compound `Oc1ccc(Nc2nc(-c3ccc(Cl)cc3)cs2)cc1`, the cell count came out at 1.16 ± 0.047 (compound dose 1 µM) and 1.07 ± 0.057 (compound dose 5 µM).
As to `O=C1O[C@H]2[C@@H]3OC(=O)c4cc(O)c(O)c(O)c4-c4c(cc(O)c(O)c4O)C(=O)OC[C@H]2O[C@@H](OC(=O)c2cc(O)c(O)c(O)c2)[C@@H]3OC(=O)c2cc(O)c(O)c3c2[C@@H]2C1=CC(=O)[C@](O)(O3)C2(O)O` [Geraniin], the cell count (compound dose 1 µM) turned out to be 1.15 ± 0.26 and the cell count (compound dose 5 µM) is 1.05 ± 0.18.
Consider `N[C@@H]1CCCN(c2c(/C=C3\SC(=O)NC3=O)cccc2-c2ccccc2)C1`, for which the cell count came to 1.01 ± 0.37 (compound dose 1 µM) and 0.959 ± 0.16 (compound dose 5 µM).
For `CO[C@H]1C[C@@H]2CC[C@@H](C)[C@@](O)(O2)C(=O)C(=O)N2CCCC[C@H]2C(=O)O[C@H]([C@H](C)C[C@@H]2CC[C@@H](O)[C@H](OC)C2)CC(=O)[C@H](C)/C=C(\C)[C@@H](O)[C@@H](OC)C(=O)[C@H](C)C[C@H](C)/C=C/C=C/C=C/1C` [Rapamycin], the cell count (compound dose 1 µM) amounted to 1.19 ± 0.04 and the cell count (compound dose 5 µM) stood at 1.16 ± 0.13.
On to `Cc1[nH]c(/C=C2\C(=O)Nc3ccccc32)c(C)c1CCC(=O)O` [Orantinib], for which the cell count came out at 0.926 ± 0.11 (compound dose 1 µM) and 0.939 ± 0.18 (compound dose 5 µM).
Consider `CCOc1ccc(-c2cn(C)nc2-c2cc(OC)c(OC)c(OC)c2)cc1` [Tubulin inhibitor 1], for which the cell count (compound dose 1 µM) is 1.11 ± 0.044 and the cell count (compound dose 5 µM) is 1.33 ± 0.059.
On to `COc1cc(OC)cc(N(CCNC(C)C)c2ccc3ncc(-c4cnn(C)c4)nc3c2)c1` [Erdafitinib], for which the cell count runs as follows: (compound dose 1 µM) 0.966 ± 0.21; (compound dose 5 µM) 0.751 ± 0.0085.
On to `COc1cc2c(cc1OC)-c1cc3ccc(OC)c(OC)c3c[n+]1CC2`, for which the cell count reads like this: (compound dose 1 µM) 1.03 and 1.1; (compound dose 5 µM) 1 and 1.09.
Consider `Cc1cc(-c2nc(-c3ccc(OC(F)(F)F)cc3)no2)nn1Cc1ccnc(N2CCN(C3CC3)CC2)c1`, for which the cell count runs as follows: (compound dose 1 µM) 1.08 ± 0.1; (compound dose 5 µM) 1.01 ± 0.26.
In turn, `CSc1cccc(Nc2ncc3cc(-c4c(Cl)cccc4Cl)c(=O)n(C)c3n2)c1` returned a cell count (compound dose 1 µM) of 0.216 ± 0.15 and a cell count (compound dose 5 µM) of 0.059 ± 0.04.
The corresponding values for `Cc1c(-c2ccc(N3CCc4cccc(C(=O)Nc5nc6ccccc6s5)c4C3)nc2C(=O)O)cnn1CC12CC3CC(CC(C3)C1)C2` are 1.02 ± 0.09 and 1.087 ± 0.0014.
As to `Cc1cc(N2CCOCC2)ccc1Nc1nc(NC2CCCCC2)c2[nH]cnc2n1`, the cell count (compound dose 1 µM) worked out at 1.17 ± 0.23 and the cell count (compound dose 5 µM) came out at 1.11 ± 0.17.
Take `O=c1c(-c2ccc(O)cc2)coc2cc(O)cc(O)c12`: the cell count (compound dose 1 µM) turned out to be 0.936 ± 0.13 and the cell count (compound dose 5 µM) was 1.14 ± 0.18.
As to `Cc1nc(Nc2n[nH]c3c2CN(C(=O)N[C@H](CN(C)C)c2ccccc2)C3(C)C)c2sccc2n1`, the cell count reads like this: (compound dose 1 µM) 0.83 ± 0.085; (compound dose 5 µM) 0.405 ± 0.011.
On to `CCn1cc(-c2ccnc3[nH]c(-c4cccc(CN(C)C)c4)cc23)c(-c2ccc(NC(=O)N(C)C)cc2)n1`, for which the cell count (compound dose 1 µM) was 0.94 ± 0.086 and the cell count (compound dose 5 µM) is 0.823 ± 0.24.
Take `CCCCCCC/C=C/C(=O)CCc1ccc(O)c(OC)c1` [[8]-Shogaol]: the cell count came to 1.13 ± 0.13 (compound dose 1 µM) and 1.05 ± 0.051 (compound dose 5 µM).
As to `C[C@@H]1O[C@@H](O[C@@H]2[C@@H](O)[C@H](OCCc3ccc(O)c(O)c3)O[C@H](CO)[C@H]2OC(=O)/C=C/c2ccc(O)c(O)c2)[C@H](O)[C@H](O)[C@H]1O` [Verbascoside], the cell count reads like this: (compound dose 1 µM) 1.13 ± 0.22; (compound dose 5 µM) 1.13 ± 0.32.
Turning to `O=C(O[C@@H]1Cc2c(O)cc(O)cc2O[C@@H]1c1cc(O)c(O)c(O)c1)c1cc(O)c(O)c(O)c1` [(-)-Epigallocatechin Gallate], the cell count reads like this: (compound dose 1 µM) 0.954 ± 0.22; (compound dose 5 µM) 1.13 ± 0.049.
